Reference: PMC4336329 (PLoS ONE, 2015)
In all, about 310,000 compounds went through this assay and about 2,200 (0.71%) showed an effect of 50% or more. The effect is printed as a negative number. The list shows a part of the results.

Biological target: human ether-à-go-go-related gene (hERG) potassium channel (human, UniProt Q12809)
Test: primary screen, population patch clamp on CHO cells stably expressing hERG

human ether-à-go-go-related gene (hERG) potassium channel, sequence (Q12809 whole entry, looked up): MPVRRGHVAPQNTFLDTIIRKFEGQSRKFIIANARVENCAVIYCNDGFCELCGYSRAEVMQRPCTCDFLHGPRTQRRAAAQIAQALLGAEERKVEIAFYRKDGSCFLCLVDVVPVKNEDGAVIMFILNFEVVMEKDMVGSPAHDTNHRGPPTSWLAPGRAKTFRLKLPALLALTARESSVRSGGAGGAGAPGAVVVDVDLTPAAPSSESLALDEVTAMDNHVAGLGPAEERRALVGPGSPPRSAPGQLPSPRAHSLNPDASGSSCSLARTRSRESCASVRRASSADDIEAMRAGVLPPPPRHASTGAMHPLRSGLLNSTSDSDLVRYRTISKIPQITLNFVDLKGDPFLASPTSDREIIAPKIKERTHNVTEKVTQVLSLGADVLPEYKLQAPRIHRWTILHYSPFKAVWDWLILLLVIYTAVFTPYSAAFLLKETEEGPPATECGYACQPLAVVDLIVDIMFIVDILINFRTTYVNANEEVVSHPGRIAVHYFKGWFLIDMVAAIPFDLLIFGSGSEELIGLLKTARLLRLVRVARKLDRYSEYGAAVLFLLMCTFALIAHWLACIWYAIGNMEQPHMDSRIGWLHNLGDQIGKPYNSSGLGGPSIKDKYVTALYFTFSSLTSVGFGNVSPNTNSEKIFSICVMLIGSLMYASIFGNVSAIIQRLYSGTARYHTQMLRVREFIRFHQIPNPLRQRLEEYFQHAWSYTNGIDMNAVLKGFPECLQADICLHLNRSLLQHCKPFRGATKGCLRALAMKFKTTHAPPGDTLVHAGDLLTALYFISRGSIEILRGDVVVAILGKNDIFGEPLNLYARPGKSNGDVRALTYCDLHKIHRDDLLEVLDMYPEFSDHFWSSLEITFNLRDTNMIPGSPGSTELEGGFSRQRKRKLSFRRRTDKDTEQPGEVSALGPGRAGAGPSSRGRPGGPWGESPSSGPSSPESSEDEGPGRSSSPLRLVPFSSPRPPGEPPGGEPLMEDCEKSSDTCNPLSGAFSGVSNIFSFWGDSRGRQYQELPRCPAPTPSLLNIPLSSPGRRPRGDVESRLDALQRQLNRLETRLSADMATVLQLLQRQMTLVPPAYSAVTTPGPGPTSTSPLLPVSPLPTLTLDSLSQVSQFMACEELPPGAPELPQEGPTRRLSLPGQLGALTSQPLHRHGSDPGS

Row | SMILES | hERG current change (%, negative = inhibition) at 1uM [%]
1 | CCCOC(=O)c1ccc(-c2ccc(C=O)o2)cc1 | 10.8
2 | CN(C)C1(CNC(=O)Cc2ccccc2F)CCCCC1 | 9.54
3 | Cc1c(CN2CCCC(C(=O)c3cccc(OC(C)C)c3)C2)c(=O)n(-c2ccccc2)n1C (centres unmarked) | -28.6
4 | CC(C)n1c(NCc2ccc(N(C)C)cc2)nc2ccccc21 | -6.31
5 | O=C(COc1ccc(Br)cc1)NC1CC1 | 9.71
6 | Cc1nc2sc(C(c3cccs3)N3CC(C)CC(C)C3)c(O)n2n1 (centres unmarked) | -2.36
7 | Cn1ccnc1Sc1nnnn1-c1ccccc1 | 0.239
8 | CCOC(=O)c1c(C)n(C)c2cc(-c3ccc(F)cc3)c(O)cc12 | 15.6
9 | COCc1nnc(NC(=O)c2ccc(S(=O)(=O)N3CCCc4ccccc43)cc2)o1 | 12.1
10 | COc1ccc(/C=N/NC(=O)c2ccc(-c3ccccc3)cc2)cc1O | 11.3
11 | O=S(=O)(c1ccccc1C(F)(F)F)N1CCOCC1 | 5.02
12 | O=C(O)CNC(=O)CCCn1nnc2ccccc2c1=O | 4.98
13 | O=C(NC1CCCC1)C1CCN(C(=O)c2ccc(Cl)cc2Cl)CC1 | 11
14 | O=S1(=O)NC(=NCc2ccco2)c2ccccc21 | 3.95
15 | CCC(C)NC(=O)C1(C)CCC(=O)N1Cc1ccccc1OC (centres unmarked) | -0.857
16 | Cc1ccc(C(C)C)c(OCC(=O)NNC2=CC(=O)CC(C)(C)C2)c1 | 5.27
17 | COC(=O)c1ccccc1NC(=O)COC(=O)CSCC(=O)N1CCOCC1 | -0.705
18 | COc1ccc(OC)c(C(=O)/C=C/c2ccccc2C(F)(F)F)c1 | 15
19 | CCCOc1ccc(C2C(C#N)=C(N)Oc3nc[nH]c(=O)c32)cc1OC (centres unmarked) | 8.94
20 | CC(C)N(Cc1ccccc1)C(=O)COC(=O)c1ccccc1SCC(=O)N1CCCC1 | -0.506
21 | CCCCNC(=O)N(O)C1N(/N=C/c2ccc(N(C)C)cc2)C(=S)SC1(C)C (centres unmarked) | 10.4
22 | COc1ccc(C(=O)Nc2ccc(S(=O)(=O)N3CCCC3)cc2)cc1[N+](=O)[O-] | 18.6

Row | SMILES | hERG current change (%, negative = inhibition) at 1uM [%]
23 | O=C(CN1C(=O)C2CCCCC2C1=O)N1CCN(c2ccc(F)cc2)CC1 (centres unmarked) | 3.66
24 | COc1c(Cl)cc(Cl)cc1CNCCNCCO.Cl | 8.71
25 | Nc1ccc(C(=O)OCC(=O)c2cccc([N+](=O)[O-])c2)cc1 | 9.37
26 | O=S(=O)(c1ccc(Cl)nc1)N1CCN(c2ncccn2)CC1 | 8.91
27 | CC[n+]1c(/C=C/Nc2ccccc2)sc2ccccc21.[I-] | -62.8
28 | Cc1cccc(N2CCN(c3ccc(N4C(=O)CCCC4=O)cc3[N+](=O)[O-])CC2)c1C | 10.5
29 | COc1ccccc1/C=C/C=N/n1c(-c2cc(-c3ccccc3)n[nH]2)n[nH]c1=S | 9.98
30 | COc1ccc(NC(=O)CCN2CCN(Cc3ccccc3)CC2)c(OC)c1 | 7.82
31 | CCOc1ccc(C(=O)NC(C)CCc2ccccc2)cc1 (centres unmarked) | 15
32 | O=C(NC(=S)N1CCN(c2ccc([N+](=O)[O-])cc2)CC1)c1ccco1 | -6.92
33 | CSc1ccc(S(=O)(=O)NCc2ccccc2)cc1 | 10.4
34 | COc1ccc2cc(CCNC(=O)c3cccs3)c(=O)[nH]c2c1 | 10.4
35 | CCOc1ccc(S(=O)(=O)NCc2cccnc2)c2ccccc12 | 7.28
36 | Cc1cc(C)cc(N(CC(=O)N2CCCC2)S(C)(=O)=O)c1 | 7.46
37 | O=S(=O)(c1ccc(Cl)cc1)c1nc(-c2ccccc2F)oc1NCCCN1CCOCC1 | 3.44
38 | C/C(=C\c1ccccc1)CN1CCN(Cc2ccc(C)o2)C(CCO)C1 (centres unmarked) | -2.15
39 | Cc1sc(NC(=O)CSc2nnc(C(C)C)n2C)c(C#N)c1C | 7.06
40 | COc1cc(O)c(C(CCN2CCN(c3ccccc3)CC2)c2ccc(N(C)C)cc2)c(OC)c1 (centres unmarked) | 19.4
41 | O=C(NC(NC(=O)c1ccccc1)c1cccc([N+](=O)[O-])c1)c1ccccc1 | 4.97
42 | COc1ccc(C2=CC(=O)C[C@H](c3ccc(F)cc3)C2)cc1OC | 9.85
43 | CC(=O)Nc1sc(NC(=O)c2ccc(Cl)cc2)nc1-c1cccs1 | 0.882
44 | COc1ccc(Cl)cc1C(=O)NNC(=S)NC(=O)c1cc(-c2ccccc2)nc2ccccc12 | 10
